# According to the supplement of paper PMC7826260:
# This is one part of the list. Each Rep nickase domain was tested in vitro on the same pool of single strands at 3 µM enzyme and 37 °C for 1 h; the strands have 90 letters, of which the middle is given. Uncut reads are compared with the no-enzyme pool on a log2 scale; strong cutting gives strongly negative numbers. There is no active / inactive call. Counts are relative to all reads; uncut strands gain when others are lost, and binding without cutting may add a little.
# Legend:
# Assay in all cases: uncleaved DNA left, log2 of reads against the no-enzyme library (log2 ratio); higher = less cleavage (more negative = more Rep cleavage of the k-mer); sequences stand for … in CTCGTCCG…ACCGGAGA
# [1] = system: T1, Rep nickase domain of Muscovy duck circovirus
# T1 sequence (residues 1-111 of Rep, tag left off): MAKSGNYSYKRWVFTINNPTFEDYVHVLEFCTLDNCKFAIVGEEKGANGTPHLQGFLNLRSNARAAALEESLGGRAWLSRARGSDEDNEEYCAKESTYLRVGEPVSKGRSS
# Method: (§1)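 A pool of 90-nt single-stranded DNAs with seven random bases just before the constant AC of the nick site (name = the seven bases) was cut by 3 µM recombinant His6-SUMO-tagged Rep nickase domain (300 nM DNA, 50 mM HEPES pH 8.0, 50 mM NaCl, 1 mM MnCl2, 1 h, 37 °C, three replicates). Uncut DNA was amplified and sequenced.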
# [2] = system: T2, Rep nickase domain of banana bunchy top virus
# T2 sequence (residues 1-94 of Rep, tag left off): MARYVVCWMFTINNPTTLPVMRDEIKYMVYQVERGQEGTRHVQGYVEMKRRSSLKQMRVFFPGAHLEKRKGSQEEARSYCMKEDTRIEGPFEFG
# Method: as §1
# [3] = system: T3, Rep nickase domain of cabbage leaf curl virus
# T3 sequence (residues 1-116 of Rep, tag left off): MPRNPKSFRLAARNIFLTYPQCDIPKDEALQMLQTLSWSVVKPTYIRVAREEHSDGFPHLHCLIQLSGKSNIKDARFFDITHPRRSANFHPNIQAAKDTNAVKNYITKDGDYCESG
# Method: as §1
# [4] = system: T4, Rep nickase domain of chickpea chlorotic dwarf virus
# T4 sequence (residues 1-124 of Rep, tag left off): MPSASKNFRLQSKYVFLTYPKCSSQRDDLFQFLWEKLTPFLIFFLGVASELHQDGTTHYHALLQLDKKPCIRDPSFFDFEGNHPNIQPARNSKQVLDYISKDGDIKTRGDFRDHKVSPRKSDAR
# Method: as §1
# [5] = system: T5, Rep nickase domain of faba bean necrotic yellows virus
# T5 sequence (residues 1-98 of Rep, tag left off): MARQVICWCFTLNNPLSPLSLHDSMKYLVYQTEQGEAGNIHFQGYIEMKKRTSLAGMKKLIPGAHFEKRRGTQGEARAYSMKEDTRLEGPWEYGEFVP
# Method: as §1
# [6] = system: T6, Rep nickase domain of maize striate mosaic virus
# T6 sequence (residues 1-117 of Rep, tag left off): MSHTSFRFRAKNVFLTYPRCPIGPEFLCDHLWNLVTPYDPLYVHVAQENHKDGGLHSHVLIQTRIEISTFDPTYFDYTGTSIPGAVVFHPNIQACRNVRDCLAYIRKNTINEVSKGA
# Method: as §1
# [7] = system: T7, Rep nickase domain of porcine circovirus 2
# T7 sequence (residues 2-116 of Rep, tag left off): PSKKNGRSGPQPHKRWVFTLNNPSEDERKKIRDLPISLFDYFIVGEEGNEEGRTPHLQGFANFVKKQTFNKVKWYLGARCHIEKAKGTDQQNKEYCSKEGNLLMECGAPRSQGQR
# Method: as §1
# [8] = system: T8, Rep nickase domain of tomato golden mosaic virus
# T8 sequence (residues 1-124 of Rep, tag left off): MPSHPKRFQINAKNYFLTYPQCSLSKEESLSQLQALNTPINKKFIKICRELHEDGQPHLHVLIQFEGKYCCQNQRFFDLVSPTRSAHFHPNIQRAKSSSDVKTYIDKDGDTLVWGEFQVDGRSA
# Method: as §1
# [9] = system: T9, Rep nickase domain of tomato yellow leaf curl virus
# T9 sequence (residues 1-136 of Rep, tag left off): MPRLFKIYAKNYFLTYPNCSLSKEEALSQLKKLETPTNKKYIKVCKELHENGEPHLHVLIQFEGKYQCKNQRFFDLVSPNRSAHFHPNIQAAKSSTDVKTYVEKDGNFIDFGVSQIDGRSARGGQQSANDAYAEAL
# Method: as §1
# [10] = system: T10, Rep nickase domain of wheat dwarf virus
# T10 sequence (residues 1-137 of Rep, tag left off): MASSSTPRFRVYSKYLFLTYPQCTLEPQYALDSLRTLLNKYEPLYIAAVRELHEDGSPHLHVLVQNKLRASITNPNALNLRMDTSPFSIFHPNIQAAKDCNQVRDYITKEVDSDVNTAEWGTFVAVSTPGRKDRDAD
# Method: as §1
Sequence,uncleaved DNA left (log2) [1],uncleaved DNA left (log2) [2],uncleaved DNA left (log2) [3],uncleaved DNA left (log2) [4],uncleaved DNA left (log2) [5],uncleaved DNA left (log2) [6],uncleaved DNA left (log2) [7],uncleaved DNA left (log2) [8],uncleaved DNA left (log2) [9],uncleaved DNA left (log2) [10]
CGACGAT,0.0296,0.022,0.0495,0.506,-0.0425,1.12,-0.105,-0.0254,-0.0823,-0.0615
GATGTGA,-0.0435,-0.0492,-0.116,0.0239,-0.0584,-0.453,0.00294,0.00434,-0.0545,-0.0572
TTAGTGC,-0.049,-0.182,-0.48,-0.824,-0.0416,-1.15,0.00179,-0.114,-0.0836,-0.176
CCAACCC,-0.344,-0.0119,-0.135,-1.67,-0.0683,-0.513,-0.969,-0.0866,-0.0861,-0.0521
GTTTCTG,0.0875,-0.0646,0.106,0.51,-0.0313,0.763,0.0087,-0.0185,0.0154,-0.00522
TAAGCGA,0.0398,-0.13,-0.722,-0.539,0.0367,-0.981,0.112,-0.0372,-0.00472,-0.143
TACGATT,0.0386,-0.068,-2.69,-2.77,0.0258,-0.476,-1.65,-0.346,-0.0771,-0.317
CTGATTT,-0.0867,-0.316,-0.214,-2.13,-0.237,-0.594,-0.676,-0.18,-0.173,-0.221
CACTGAA,0.0256,0.0834,-0.0783,0.303,-0.0943,0.485,-1.57,-0.125,0.00116,0.0872
TCACGTT,0.00931,-0.172,-0.573,-2.62,-0.0589,-0.988,-0.316,-0.243,0.0384,-0.652
GCGTATG,0.0926,-0.096,0.00278,0.511,0.202,1.03,0.294,0.205,0.0273,0.032
CCCTCAA,-0.116,-0.0645,-0.0294,-0.331,-0.0887,-0.563,-0.0223,-0.0447,-0.181,-0.0427
TCCGGAC,-0.169,0.0165,0.312,0.969,-0.11,1.16,-0.0185,-0.059,-0.035,-0.0683
CCGCTGA,-0.014,-0.117,0.229,0.655,-0.124,0.845,0.0589,-0.168,-0.0287,0.0309
ATACACC,-0.0671,-0.0331,-0.0876,-0.806,0.027,-0.672,-0.166,-0.0949,-0.104,-0.0719
TCTCCTC,-0.194,-0.159,0.132,0.075,0.00268,0.379,-0.112,-0.0503,-0.174,-0.113
GCAGTCA,-0.0809,0.0584,0.0521,-0.417,-0.0115,-0.119,0.0338,0.0274,0.000182,0.0662
CGTGCGG,0.0749,0.0161,0.442,1.36,0.0302,1.58,0.0939,0.167,-0.0745,0.000507
AGGTCAT,0.0493,0.0717,0.808,1.82,-0.0394,2.09,0.0977,0.0398,0.0822,0.159
AGGCGTA,0.0589,0.00639,-0.168,-0.39,0.023,-0.616,0.184,0.171,0.0998,0.00195

Sequence,uncleaved DNA left (log2) [1],uncleaved DNA left (log2) [2],uncleaved DNA left (log2) [3],uncleaved DNA left (log2) [4],uncleaved DNA left (log2) [5],uncleaved DNA left (log2) [6],uncleaved DNA left (log2) [7],uncleaved DNA left (log2) [8],uncleaved DNA left (log2) [9],uncleaved DNA left (log2) [10]
AGACTTC,-0.124,-0.0768,0.429,1.06,-0.0784,1.35,0.0311,-0.157,-0.0652,-0.0173
GTCCATT,0.1,0.0549,0.352,0.97,0.117,1.7,0.0382,0.058,0.0836,0.269
ATTTACA,-0.111,-0.00509,-0.331,-2.69,0.0182,-0.794,-0.266,-0.0547,0.053,-0.0364
CCTGGGG,0.151,0.262,0.361,0.683,0.0815,0.423,0.226,0.12,0.0302,0.069
TGATTTG,0.0297,-0.0454,-0.36,-0.646,0.0225,-1.05,0.18,-0.0744,-0.000803,-0.0518
TGTGTTC,0.139,0.0224,0.372,0.371,0.0347,1.19,0.0236,0.105,0.125,0.108
CCAAGAC,-0.0198,0.0513,0.0558,0.387,-0.00548,-0.0315,0.19,0.059,0.0681,0.134
TGAAGCT,-0.00603,-0.109,-0.154,-0.791,-0.0313,-0.494,0.0644,-0.0475,-0.132,-0.0775
CCTATGT,0.0743,-0.104,-0.172,-0.287,-0.0311,-1.08,-0.325,-0.0563,-0.167,-0.00247
GCCGAGT,-0.251,0.0251,0.676,1.11,0.0448,1.36,0.0927,-0.0125,0.0258,0.0589
AGTAGCC,-0.0141,-0.0167,0.0275,0.156,-0.144,-0.716,0.00658,-0.0536,-0.0331,-0.0656
GCCACCT,-0.0566,0.0208,0.0891,-1.07,-0.0864,0.165,-0.0796,-0.0427,-0.0679,0.0469
GAACAAA,-0.0801,0.0472,0.355,0.568,0.0332,1.05,0.0469,-0.00348,0.0297,0.104
GCTACTG,0.113,0.102,0.021,0.634,0.074,1.61,0.0948,0.128,0.0247,0.124
TACACCA,0.00627,-0.065,-0.286,-2.39,-0.0605,-0.177,-0.314,-0.054,-0.0541,-0.0796
GACTAAG,0.116,0.0493,-0.575,-0.416,0.0349,-1.17,0.0837,0.0555,0.0776,0.0522
GATCCTC,0.0912,0.112,0.193,0.643,-0.0405,0.844,0.0717,-0.0189,0.0769,0.231
CCTATTG,0.0147,-0.0358,-0.579,-0.558,0.0819,-1.22,0.0699,-0.11,-0.0337,-0.0302
GTGTTAC,-0.139,0.0787,0.0339,0.636,-0.0623,1.78,-0.281,-0.0542,-0.028,-0.169
TGCATAA,-0.021,0.0986,-0.149,-0.229,0.0669,-0.639,-0.0658,0.0188,0.041,0.137

Sequence,uncleaved DNA left (log2) [1],uncleaved DNA left (log2) [2],uncleaved DNA left (log2) [3],uncleaved DNA left (log2) [4],uncleaved DNA left (log2) [5],uncleaved DNA left (log2) [6],uncleaved DNA left (log2) [7],uncleaved DNA left (log2) [8],uncleaved DNA left (log2) [9],uncleaved DNA left (log2) [10]
GTCTGAC,-0.013,-0.0446,0.225,0.847,-0.00274,1.18,0.0396,0.0245,0.0048,0.0636
CCCAAAC,-0.0349,-0.0737,0.0775,-0.47,0.0679,-0.711,0.108,-0.115,-0.0165,-0.012
CAAAATA,-0.0703,-0.0389,-0.572,-2.67,-0.097,-0.767,-0.0988,-0.034,-0.113,-0.169
CTAAAAT,-0.0621,-0.133,-0.0371,-1.03,-0.215,-0.605,-0.139,-0.166,-0.0896,-0.0238
CCGTCGA,-0.0553,-0.219,-0.648,-0.693,-0.0668,-0.947,-0.129,-0.227,-0.107,-0.254
AATAGAA,0.011,-0.0127,0.0106,-0.189,0.125,-0.509,0.041,0.0328,-0.0184,-0.00459
CGTTGCG,-0.0106,-0.00069,0.172,1.37,-0.000891,1.57,0.101,-0.0337,-0.0324,-0.0125
CGTTTTA,-0.225,-0.1,0.0355,-0.291,-0.00437,0.652,-0.243,-0.00242,-0.0832,-0.12
TGTCACT,-0.00476,0.0512,0.231,-1,-0.188,0.547,-1.25,-0.0711,0.0217,-0.00459
GTTCCCT,0.148,0.0871,0.328,0.68,0.0236,1.66,-1.05,0.0947,0.0137,0.207
CCTCATA,-0.0859,-0.00887,-0.246,-1.01,-0.0898,-0.492,-0.0599,0.0239,-0.108,-0.0682
ATGATAG,0.0116,-0.00548,-0.824,-0.402,-0.0484,-1.29,0.158,0.0202,-0.0531,-0.0562
ATTGCGC,0.0322,-0.0106,0.087,1,0.0886,1.23,0.0905,-0.0576,0.0321,-0.092
GCCAGCA,-0.00661,0.0997,-0.197,-0.198,-0.0106,-0.767,-0.132,0.00569,-0.11,0.0269
GATCTAG,0.164,0.0454,-0.368,-0.375,0.136,-0.847,0.224,0.101,0.163,0.116
ACTGATC,0.191,0.13,0.14,0.62,-0.0962,0.805,0.228,0.0616,-0.0962,-0.0483
CTATTGT,-0.316,-0.032,-0.769,-0.904,0.0493,-1.24,-0.427,-0.0537,-0.0243,-0.05
GAGCCGC,-0.136,0.00615,-0.271,-0.0913,-0.113,-0.511,0.0265,-0.0378,0.016,-0.0632
TGTGTCG,0.0837,-0.0315,-0.749,0.213,-0.0754,-0.886,-0.000412,-0.0862,0.0255,-0.204
CCTTTCA,-0.0161,-0.0119,0.243,-0.674,-0.065,-0.266,-0.106,-0.0386,0.185,0.176
